The source of these data is the antibiotic and cytotoxicity screens of Wong et al. (2023).

SMILES strings stand for the structures. This is one part of the list.

One experiment deals with HSkMC. Briefly: cytotoxicity call (relative viability < 0.9). The note with it: 10 µM.
A further experiment has as its system HepG2. The experiment is described as follows: cytotoxicity call (relative viability < 0.9). To be noted: 10 µM.
In a further experiment the test system is S. aureus RN4220. Briefly: growth inhibition call (relative growth <= 0.2). To be noted: 50 µM.

As to `COc1ccc(S(=O)(=O)Nc2cccc3c2O[C@@H](CN(C)C(=O)Nc2c(C)noc2C)[C@H](C)CN([C@@H](C)CO)C3=O)cc1`, the cytotoxicity call in the experiment with HSkMC and with HepG2 was “inactive” in each case. The growth inhibition call in the experiment on S. aureus RN4220 was “inactive”.
`C[C@H](CO)N1C[C@H](C)[C@H](CN(C)Cc2ccccc2)Oc2ccc(NS(=O)(=O)c3cn(C)cn3)cc2C1=O`: the cytotoxicity call in the experiment on HSkMC and with HepG2 was “inactive” each time. For the same compound, the growth inhibition call in the experiment with S. aureus RN4220 was “inactive”.
For the compound `C[C@@H]1CCCCO[C@H](CN(C)S(=O)(=O)c2cccs2)[C@@H](C)CN([C@@H](C)CO)C(=O)c2cc(NC(=O)Nc3cccc4ccccc34)ccc2O1`, the cytotoxicity call in the experiment with HSkMC and in the experiment on HepG2 was “inactive” throughout. Further, the growth inhibition call with S. aureus RN4220 is “inactive”.
Consider `COc1ccc(CN(C)C[C@@H]2OCCCC[C@@H](C)Oc3ccc(NC(=O)Nc4ccccc4)cc3C(=O)N([C@@H](C)CO)C[C@@H]2C)cc1`, for which the cytotoxicity call in the experiment with HSkMC and in the experiment on HepG2 was “inactive” throughout. In the experiment with S. aureus RN4220, the growth inhibition call was “inactive”.
As to `COc1ccc(NC(=O)Nc2ccc3c(c2)C(=O)N([C@H](C)CO)C[C@H](C)[C@@H](CN(C)Cc2ccc(Cl)c(Cl)c2)OCCCC[C@H](C)O3)cc1`, the cytotoxicity call in the experiment on HSkMC and in the experiment with HepG2 was “inactive” in each case. For the same compound, in the experiment with S. aureus RN4220, the growth inhibition call was “inactive”.
Take `C[C@H]1CN([C@@H](C)CO)S(=O)(=O)c2ccc(C#Cc3ccncc3)cc2O[C@@H]1CN(C)S(=O)(=O)c1ccccc1`: in the experiment on HSkMC, the cytotoxicity call is “inactive”. For the same compound, the cytotoxicity call with HepG2 was “active”. Moreover, in the experiment on S. aureus RN4220, the growth inhibition call is “inactive”.
For the compound `CCCNC(=O)N(C)C[C@@H]1Oc2ncc(-c3ccc(C(=O)N(C)C)cc3)cc2C(=O)N([C@@H](C)CO)C[C@H]1C`, the cytotoxicity call in the experiment with HSkMC and in the experiment on HepG2 was “inactive” in each case. In addition, in the experiment on S. aureus RN4220, the growth inhibition call is “inactive”.
Take `Cn1cnc(S(=O)(=O)N2C[C@@H](O)COC[C@H]3O[C@H](CC(=O)N4CCN(c5ccccc5)CC4)CC[C@@H]32)c1`: the cytotoxicity call with HSkMC and in the experiment on HepG2 was “inactive” throughout. Further, in the experiment with S. aureus RN4220, the growth inhibition call is “inactive”.
Take `C[C@@H]1CN([C@H](C)CO)C(=O)CCCn2nncc2CO[C@H]1CN(C)S(C)(=O)=O`: the cytotoxicity call in the experiment on HSkMC (human skeletal muscle cells) and in the experiment on HepG2 was “inactive” each time. The growth inhibition call in the experiment with S. aureus RN4220 was “inactive”.
